In all, about 48,000 compounds went through this assay and about 550 (1.1%) were called active. About 4% were inconclusive and are not listed. No stated cut-off is given here; in the data, active means potency below about 15 µM; inconclusive means mostly about 16 µM to 33 µM; inactive means weaker than that. This is one part of the list.
Potency means the concentration at half of the fitted maximal effect.

For this assay, the target named is Lysosomal acid glucosylceramidase (Homo sapiens) (UniProt P04062). In words: Glucocerebrosidase.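 Further: the screen sought inhibitors.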 Conditions: purified enzyme, resorufin glucoside fluorescence (screen aimed at inhibitors), 20 min. In a few lines: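 Wild-type enzyme at 0.2 nM final in 50mM citric acid/KH2PO4, 10mM sodium taurocholate, 0.01% tween-20, pH 5.9, with resorufin beta-D-glucopyranoside at 30 uM final. Compounds titrated, 20 min at RT, red fluorescence read; AC50 from titration.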
UniProt P04062, sequence (P04062 whole entry, looked up): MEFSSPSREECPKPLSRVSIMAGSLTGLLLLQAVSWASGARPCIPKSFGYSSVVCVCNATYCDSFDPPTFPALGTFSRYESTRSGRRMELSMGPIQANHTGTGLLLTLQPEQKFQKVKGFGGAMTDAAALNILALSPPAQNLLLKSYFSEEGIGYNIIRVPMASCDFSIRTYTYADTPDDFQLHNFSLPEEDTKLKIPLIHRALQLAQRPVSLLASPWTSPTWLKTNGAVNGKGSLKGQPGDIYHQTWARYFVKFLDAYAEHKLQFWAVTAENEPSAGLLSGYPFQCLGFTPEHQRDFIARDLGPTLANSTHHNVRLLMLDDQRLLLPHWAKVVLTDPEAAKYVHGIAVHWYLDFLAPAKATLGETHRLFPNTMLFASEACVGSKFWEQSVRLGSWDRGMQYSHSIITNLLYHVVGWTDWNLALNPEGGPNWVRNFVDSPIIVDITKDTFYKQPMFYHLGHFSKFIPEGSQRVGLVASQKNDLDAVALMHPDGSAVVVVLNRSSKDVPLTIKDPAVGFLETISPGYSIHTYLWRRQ
As for `Cc1ccc(C(C(=O)NC2CCCC2)N(C(=O)c2csnn2)C2CCCC2)o1` (stereo not given), the Potency was inactive: > 76.9 µM. For the compound `O=C(Nc1nc2c(s1)CCCC2)c1cc2n(n1)C(C(F)(F)F)CC(C1CC1)N2` (stereo not given), the Potency was inactive: > 76.9 µM. With `O=C(Nc1nnc(-c2ccccc2Cl)o1)c1ccc(S(=O)(=O)N2CCCCCC2)cc1` the figure was inactive: > 76.9 µM; with `CCOC(=O)CSc1nc2ccccc2c(=O)n1CCCCCC(=O)NCc1ccco1`, inactive: > 76.9 µM. The value for `O=C(CSc1n[nH]c(-c2cccnc2)n1)Nc1ccnc2ccccc12` was inactive: > 76.9 µM; that for `CC(=O)c1c(C)nn(CC(O)Cn2c3c(c4cc(C)ccc42)CCCC3=O)c1C` (stereo not given) was inactive: > 76.9 µM; that for `C/C(CC(O)(/C=N/O)c1ccccc1)=N\O` (stereo not given) was inactive: > 76.9 µM. With `COC(=O)C(C)Sc1nc(-c2ccc(OC)cc2)nc2c1c(=O)n(C)c(=O)n2C` (stereo not given) the figure was inactive: > 76.9 µM.

As for `O=c1c2ccccc2nnn1CSc1nnc(-c2cccc(S(=O)(=O)N3CCCCC3)c2)o1`, the Potency was inactive: > 76.9 µM. With `CCOC(=O)c1ccc(CNC(=O)CSc2nnnn2-c2ccc(Cl)cc2)o1` the figure was inactive: > 76.9 µM.

For `O=C(c1cc2cc(Cl)ccc2oc1=O)N1CCOCC1`, the Potency was inactive: > 76.9 µM. The value for `CCCSc1nc(C)cc(=O)[nH]1` was inactive: > 76.9 µM; that for `CC1CCN(C(=O)Cn2c(=O)n(CCc3ccccc3)c(=O)c3ccccc32)CC1` was inactive: > 76.9 µM. As for `COc1ccc2nc(/N=C\N(C)C)sc2c1`, the Potency is inactive: > 76.9 µM. With `CCC(=O)N1CCc2cc(S(=O)(=O)NCCC(=O)N3CC=C(c4ccccc4)CC3)ccc21` the figure was inactive: > 76.9 µM; with `CCc1ccccc1N=C1SCC(=O)N1C`, inactive: > 76.9 µM; with `Cc1nn(C)c(C)c1S(=O)(=O)N(CC(=O)NCCCOC(C)C)c1ccc(C(C)C)cc1`, inactive: > 76.9 µM. With `O=C1CC(c2ccc3c(c2)OCO3)CN1` (stereo not given) the figure was inactive: > 76.9 µM. Turning to `COc1ccc(CNC(=O)NC2CCCCC2)cc1`, the Potency is inactive: > 76.9 µM. Consider `COc1ccc(OC)c2[nH]c(=O)c(CCNC(=O)C3CCCCC3)cc12`, for which the Potency is inactive: > 76.9 µM.

`CC12CCC(C(=O)NCCN3CCCCC3)(CC1=O)C2(C)C` (stereo not given): the Potency is inactive: > 76.9 µM. The value for `COc1ccc2nc3oc(C(=O)N4CCC(C(N)=O)CC4)cc3cc2c1` was inactive: > 76.9 µM; that for `CC(C)(C)c1ccc(C(=O)CSc2ncn[nH]2)cc1` was inactive: > 76.9 µM; that for `CCCn1c(N)c(C(=O)CSc2nc3ccccc3n2CCC#N)c(=O)n(C)c1=O` was inactive: > 76.9 µM. For `Nc1cc(N)nc(SCC(=O)Nc2ccc(Br)cc2Cl)n1`, the Potency is inactive: > 76.9 µM. The value for `CC(C)(C)c1ccc(SCC(N)=O)cc1` was inactive: > 76.9 µM; that for `O=C(O)CSc1nnc(-c2ccco2)o1` was inactive: > 76.9 µM. On to `c1ccc(N2CCN(c3ncnc4scc(-c5cccs5)c34)CC2)cc1`, for which the Potency was inactive: > 76.9 µM.

Regarding `C=CCn1cc(C(=O)NCC2CCCO2)c(=O)c2cc(S(=O)(=O)N3CCCCCC3)ccc21` (stereo not given), the Potency is inactive: > 76.9 µM.

Turning to `CCS(=O)(=O)NCc1cn2ccsc2n1`, the Potency is inactive: > 76.9 µM. `Cc1ccccc1-n1c(SCc2c(C)noc2C)nnc1-c1c[nH]c2ccccc12`: the Potency is inactive: > 76.9 µM. With `COCCn1c(=O)c2c(nc3n2CCN3c2ccc(C)cc2)n(C)c1=O` the figure was inactive: > 76.9 µM; with `Cc1cc(C)c2c(=O)c3c(oc2c1)C(=O)N(CCO)C3c1cccc(O)c1` (stereo not given), inactive: > 76.9 µM; with `CC(=O)Nc1cc(C(=O)O)ccc1S(=O)(=O)c1ccc(Cl)cc1`, inactive: > 76.9 µM. Turning to `CCCCn1c(=S)[nH]c2ncccc2c1=O`, the Potency was inactive: > 76.9 µM. With `C=CCN1C(c2ccccc2)=CS/C1=C(\C#N)c1nnc2n1CCCCC2`, the Potency was inactive: > 76.9 µM.

For the compound `c1ccc2c(c1)nc(N1CCOCC1)c1c3ccccc3[nH]c21`, the Potency is inactive: > 76.9 µM. With `COc1ccc(S(=O)(=O)N2CCCC(C(=O)NCc3ccncc3)C2)cc1Cl` (stereo not given) the figure was inactive: > 76.9 µM; with `COc1ccc(CNc2cc(C)ccc2C)c(OC)c1OC`, inactive: > 76.9 µM. In the case of `C=CCn1c(=O)/c(=C/c2cc(OC)c(OC)c(OC)c2)s/c1=C(/C#N)c1nc2ccccc2n1C`, the Potency was inactive: > 76.9 µM. Take `CC1(C)CC(=O)C(CC2=C(O)CC(C)(C)CC2=O)C(=O)C1`: the Potency was inactive: > 76.9 µM. For `O=C(CSc1nnc2scc(-c3ccccc3)n12)N1CCCc2ccccc21`, the Potency is inactive: > 76.9 µM. On to `c1ccc(CSc2nnnn2-c2cccc3ccccc23)nc1`, for which the Potency was inactive: > 76.9 µM.

In the case of `COc1cccc(-n2c(SCC(N)=O)nnc2-c2ccncc2)c1`, the Potency is inactive: > 76.9 µM. Take `O=C(Nc1nnc(C2CCCCC2)s1)c1ccco1`: the Potency was inactive: > 76.9 µM. The value for `Cc1cccc2nc(Cn3c(=O)n(CCCC(=O)NCc4ccco4)c(=O)c4ccccc43)cc(=O)n12` was inactive: > 76.9 µM; that for `COc1ccccc1C(=O)Nc1cccc(-c2cn3ccsc3n2)c1` was inactive: > 76.9 µM. Consider `O=C1CC(=O)N(CCc2ccccc2)C(=O)N1CCc1ccccc1`, for which the Potency is inactive: > 76.9 µM.

On to `Cc1ccc(-n2ncc3c(=O)n(-c4ccc(C)c(C)c4)c(C)nc32)cc1`, for which the Potency was inactive: > 76.9 µM. In the case of `CC(C)CN(CC(C)C)S(=O)(=O)N1CCC(C(=O)NCCN2CCOCC2)CC1`, the Potency result was “inactive”.

As to `COc1ccc2[nH]c(=O)c(CN(C(=O)c3cccnc3)c3ccccc3OC)cc2c1`, the Potency was inactive: > 76.9 µM. With `O=C(Nc1cccc(Cl)c1Cl)C1CCN(c2ncccn2)CC1` the figure was inactive: > 76.9 µM; with `Cc1ccc(S(=O)(=O)N2CCN(C(=O)CN3CCN(C)CC3)C2)cc1`, inactive: > 76.9 µM; with `O=C(CCCNS(=O)(=O)c1cccc2nsnc12)NCCc1ccccc1`, inactive: > 76.9 µM.

Regarding `O=P(O)(O)c1ccccc1OCCOCCOc1ccccc1P(=O)(O)O`, the Potency was inactive: > 76.9 µM. With `O=C(Nc1ccc2c(c1)OCCO2)C1CCN(S(=O)(=O)c2ccc(Br)s2)CC1` the figure was inactive: > 76.9 µM; with `CCOC(=O)c1c(NC(=O)CSc2nnc(CNC(=O)c3ccco3)n2C)sc2c1CCC2`, inactive: > 76.9 µM.

`O=C(O)CCCC(=O)Nc1ccccc1C(=O)O`: the Potency is inactive: > 76.9 µM. The value for `C/C=C/c1ccc(Oc2nnnn2-c2ccc(C(=O)O)cc2)c(OC)c1` was inactive: > 76.9 µM. With `CCn1c(CNC(C)=O)nnc1SCC(=O)c1ccc(Br)cc1` the figure was inactive: > 76.9 µM; with `CCOC(=O)CN1CC23C=CC(O2)C(C(=O)Nc2ccc(F)c(C)c2)C3C1=O` (stereo not given), inactive: > 76.9 µM; with `CSc1nsc(SCC(=O)Nc2ccccn2)n1`, inactive: > 76.9 µM. With `NC(=O)C1CCN(C(=O)CSc2nc3c(c(-c4ccccc4)n2)CCCC3)CC1`, the Potency was inactive: > 76.9 µM. With `O=C(CN(Cc1ccc2c(c1)OCO2)C(=O)c1cnsn1)NC1CCCC1`, the Potency was inactive: > 76.9 µM.

For `CC(C)(C)C1CCc2onc(C(=O)Nc3cnn(Cc4ccc(F)cc4)c3)c2C1` (stereo not given), the Potency is inactive: > 76.9 µM. The value for `O=C(NCC1CCCO1)c1ccc(NC(=O)C2CC=CCC2C(=O)O)cc1` (stereo not given) was inactive: > 76.9 µM; that for `COc1cccc(NC(=O)CN(c2cccc(F)c2)S(C)(=O)=O)c1` was inactive: > 76.9 µM; that for `Cc1nn(S(=O)(=O)N2CCCCC2)c(C)c1Br` was inactive: > 76.9 µM. For the compound `CCc1nnc(NC(=O)NCN2C(=O)C3C4C=CC(C4)C3C2=O)s1` (stereo not given), the Potency was inactive: > 76.9 µM. With `Cc1ccc2c(c1)nnn2C1CCN(CC(=O)N2CCN(c3ccc(F)cc3)CC2)CC1` the figure was inactive: > 76.9 µM. Take `O=C(Nc1ccccc1)NC1CCN(CCCN2C(=O)c3ccccc3C2=O)CC1`: the Potency is inactive: > 76.9 µM.

For the compound `COc1cc(C(=O)Nc2ccc3c(c2)OCCO3)ccc1OC(F)F`, the Potency was inactive: > 76.9 µM.

As to `CCC(=O)Nc1cc2c(cc1C(=O)c1ccccc1)OCCO2`, the Potency was inactive: > 76.9 µM. The value for `Cc1ccc(OCC(=O)NCc2ccco2)cc1C` was inactive: > 76.9 µM; that for `N#CC1=C(N)SC(N)=C(C#N)C1c1c(Cl)cccc1Cl` was inactive: > 76.9 µM. The value for `Nc1nnnn1/N=C/C=C/c1ccccc1` was inactive: > 76.9 µM; that for `COC(=O)c1ccc2c(c1)SC1=C(CCCC1=O)N2` was inactive: > 76.9 µM; that for `CCOC(=O)N1CCN(C(=O)c2ccc3c(=O)n(-c4ccc(OC)cc4OC)c(=S)[nH]c3c2)CC1` was inactive: > 76.9 µM.

As for `c1ccc(SCc2nc(-c3ccncc3)no2)cc1`, the Potency was inactive: > 76.9 µM.

As for `O=C(Cc1cn2ccsc2n1)Nc1cccc2cnccc12`, the Potency was inactive: > 76.9 µM. With `Cc1ccc(S(=O)(=O)N2CCN(C3CCN(Cc4ccccc4)CC3)CC2)cc1` the figure was inactive: > 76.9 µM; with `Cc1cccc2cc(CN(Cc3ccco3)C(=O)c3ccncc3)c(=O)[nH]c12`, inactive: > 76.9 µM. With `O=C(CN(Cc1ccccc1)C(=O)CCC(=O)Nc1nccs1)NCc1ccco1` the figure was inactive: > 76.9 µM; with `COc1ccc2c(c1OC)C(=O)OC2Nc1ccccc1S(=O)(=O)C(F)F` (stereo not given), inactive: > 76.9 µM; with `C(=C\CSc1ncn[nH]1)/CSc1ncn[nH]1`, inactive: > 76.9 µM. `O=C(NCC(c1cccnc1)N1CCOCC1)c1cccs1` (stereo not given): the Potency was inactive: > 76.9 µM.

Consider `CCC(CO)NCCNC(CC)CO` (stereo not given), for which the Potency was inactive: > 76.9 µM.

Turning to `COCCn1nnnc1C(c1ccccc1OC)N1CCN(c2ccccc2F)CC1` (stereo not given), the Potency was inactive: > 76.9 µM. With `COc1ccc(C(=O)NCc2nnc(SCC(=O)NCc3ccc(F)cc3)o2)cc1` the figure was inactive: > 76.9 µM; with `Cc1onc(-c2ccccc2)c1C(=O)Nc1nc(-c2cc(F)ccc2F)cs1`, inactive: > 76.9 µM.

The values are drawn from PubChem BioAssay AID360 (National Center for Advancing Translational Sciences (NCATS), 2006).
